Source: the supplement of paper PMC3334620
Over roughly 33,000 sequences, “E-score (-0.5 to 0.5)” has its median near -0.035; the highest 2% begin near 0.35. The list shows a part of the results.

target: T1, Pdr3 (UniProt P33200); experiment: PBM E-score (8-mer binding enrichment) (E-score (-0.5 to 0.5)); higher = stronger / more preferred TF binding; most listed sequences are background and not binding sites; conditions: protein concentration: 200 nM; construct: GST-full length
T1 sequence: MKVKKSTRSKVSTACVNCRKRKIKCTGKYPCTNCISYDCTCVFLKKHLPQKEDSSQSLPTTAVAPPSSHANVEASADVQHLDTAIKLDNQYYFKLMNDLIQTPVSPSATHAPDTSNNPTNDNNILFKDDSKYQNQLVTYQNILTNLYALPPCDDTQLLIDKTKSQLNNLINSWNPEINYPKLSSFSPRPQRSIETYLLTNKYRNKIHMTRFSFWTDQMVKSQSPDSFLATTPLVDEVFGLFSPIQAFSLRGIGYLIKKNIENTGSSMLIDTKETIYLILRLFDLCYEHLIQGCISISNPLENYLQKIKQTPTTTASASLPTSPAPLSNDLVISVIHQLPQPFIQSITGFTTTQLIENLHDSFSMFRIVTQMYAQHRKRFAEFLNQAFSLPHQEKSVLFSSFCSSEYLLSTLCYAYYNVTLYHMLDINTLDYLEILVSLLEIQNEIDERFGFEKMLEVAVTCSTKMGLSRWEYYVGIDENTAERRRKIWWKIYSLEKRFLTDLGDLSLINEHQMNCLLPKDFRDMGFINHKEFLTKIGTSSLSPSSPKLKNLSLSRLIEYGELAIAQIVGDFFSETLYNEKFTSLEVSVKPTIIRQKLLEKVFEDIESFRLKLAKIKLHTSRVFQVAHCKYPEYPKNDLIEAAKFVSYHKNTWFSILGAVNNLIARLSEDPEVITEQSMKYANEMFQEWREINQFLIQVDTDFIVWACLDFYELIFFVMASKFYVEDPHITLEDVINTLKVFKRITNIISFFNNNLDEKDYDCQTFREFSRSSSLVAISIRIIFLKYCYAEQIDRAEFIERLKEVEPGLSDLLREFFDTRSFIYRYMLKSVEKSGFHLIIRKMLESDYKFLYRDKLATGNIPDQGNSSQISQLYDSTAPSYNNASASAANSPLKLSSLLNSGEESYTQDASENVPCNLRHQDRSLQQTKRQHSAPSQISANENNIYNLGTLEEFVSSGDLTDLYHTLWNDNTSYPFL
Method in brief: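 Each ungapped eight-base word and its reverse complement, pooled, received an E-score from the Universal PBM Analysis Suite. Underlying scans, normalised with masliner, recorded fluorescent anti-GST bound to GST-tagged yeast transcription factors. These were applied at about 100-200 nM to universal all-10-mer Agilent arrays double-stranded by primer extension.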

Row | Sequence | PBM E-score
1 | GCAATTCC | 0.22
2 | AAACAAGT | -0.0921
3 | CTGGGGCC | 0.0244
4 | GCAATGGA | -0.0873
5 | ACTACCGG | 0.11
6 | CTGCCTCA | -0.27
7 | GATTAGCA | -0.0144
8 | TCGCAACA | -0.038
9 | ATTGACCA | -0.0974
10 | CGCTAATA | 0.158
11 | GTTAAACA | -0.182
12 | AGCCCCGC | 0.11
13 | AAGTGGCA | -0.0456
14 | GATGCCCC | -0.161
15 | AAACCCTG | -0.023
16 | CACTCGGG | 0.173
17 | CCCCAGCG | -0.163
18 | TACCCCAA | -0.0565
19 | AGGTGCTG | -0.0671
20 | AAAATTAG | 0.109
21 | AACGAGAC | -0.102
22 | CATACAAA | 0.141
23 | AATACAGT | -0.144
24 | CTCACGTA | -0.103
25 | AAGTTTAA | -0.158

Row | Sequence | PBM E-score
26 | CGAACGTC | -0.146
27 | AAAGGGTT | -0.153
28 | ACATACAA | -0.0319
29 | GACCTGCA | -0.288
30 | ATGCCTGA | -0.159
31 | ATTAGCCC | -0.0315
32 | CTCCCAAG | -0.264
33 | GTCCTTCA | -0.0595
34 | CATCCGTC | 0.249
35 | AGATTGCC | 0.0473
36 | CGACAATA | 0.156
37 | TCGCATAA | 0.0329
38 | GTGATACA | -0.133
39 | GAATGCCC | 0.0734
40 | ATGTGGAG | -0.0421
41 | CCAGATTC | -0.141
42 | CACGCCCG | 0.208
43 | TCGCAGCA | -0.174
44 | GAAACATC | -0.0968
45 | ACCTAATC | 0.0254
46 | AAAGATAT | 0.139
47 | GGAAGCAA | 0.113
48 | GACACGGC | 0.171
49 | ATCATTTA | 0.0551
50 | CATAAGGC | -0.0651

Row | Sequence | PBM E-score
51 | ATTGCGCG | 0.271
52 | CTACATCA | -0.0584
53 | TAGTATCA | 0.172
54 | AGGTGATG | -0.209
55 | GAAAGGAA | 0.104
56 | GCACTGTA | 0.0604
57 | ATTGGAAC | 0.137
58 | AATGACCT | -0.184
59 | CCATGGAA | 0.156
60 | GTGTGGAA | -0.0589
61 | CTCTGTTA | 0.00683
62 | AGTAGAGG | -0.236
63 | TAACTGTA | -0.323
64 | AGTTACGC | -0.182
65 | GCCACGAC | 0.0242
66 | CTGACCAG | -0.099
67 | ATAGACGG | 0.165
68 | AGCGAGAG | -0.0257
69 | ATGTCGTC | -0.0495
70 | ACTTCGCC | 0.136
71 | CGAGTTCA | -0.107
72 | AAGGATAC | -0.00551
73 | GGGCCTAA | -0.167
74 | CCTTTACA | -0.131
75 | CCACGATA | 0.0643

Row | Sequence | PBM E-score
76 | AAACTGAA | -0.129
77 | ACGACCGG | 0.124
78 | AAGGGTTC | -0.025
79 | ACTTATTG | -0.165
80 | ATTATGTG | 0.0514
81 | AACAGCCA | 0.00093
82 | CTCTAATA | -0.204
83 | ACCTCGTG | -0.145
84 | GCGCGACC | 0.132
85 | GTCCATGA | -0.209
86 | CAGAAGGA | -0.262
87 | AACCTAAG | -0.163
88 | CAGTTAAA | -0.192
89 | AGCCCTCG | -0.137
90 | TTCTTAAA | -0.143
91 | AACAGATG | -0.155
92 | CCGTATGC | 0.258
93 | CACTGTCA | -0.237
94 | CTCGCCTA | -0.092
95 | CAGGAAAA | 0.0238
96 | CGCGAGAA | 0.0823
97 | CCCGCAAA | 0.198
98 | AAACAAAA | -0.0866
99 | TACCTAGA | -0.195
100 | AACTAGGG | -0.256

Row | Sequence | PBM E-score
101 | ACAAAAAA | 0.0183
102 | CGCCTGCA | -0.0772
103 | ACGGACTG | 0.0941
104 | CGAACTAA | 0.0447
105 | AGCCCGCT | -0.183
106 | CGACCATA | 0.0144
107 | ATACGTCG | -0.0614
108 | TACAAATA | -0.0219
109 | AAAGACAT | -0.211
110 | CGGACCAC | 0.35
111 | CATTTGTA | -0.0519
112 | AAAGTTAC | -0.127
113 | AGGGGCAT | -0.117
114 | GGTATTAA | 0.141
115 | AGACTGAG | -0.241
116 | GCGATAAC | 0.0751
117 | CATGTGAG | -0.134
118 | AAAAACCA | -0.0328
119 | GGAAATCC | 0.224
120 | GACGACGA | 0.026
121 | GCACAAAA | 0.134
122 | ACCCTCTC | -0.0915
123 | CACCATCG | -0.207
124 | CTCGCAAA | -0.131
125 | GTCCCTAA | -0.0658

Row | Sequence | PBM E-score
126 | GACTGTAC | -0.206
127 | AGCAGAGC | -0.158
128 | AGGACGTC | -0.0612
129 | ACAATGCC | 0.0544
130 | ATAAAGGG | -0.138
131 | GCCTTGCA | -0.139
132 | CCTCTAAA | -0.248
133 | AGCATCTC | -0.16
134 | CCTGATCA | -0.236
135 | CGTCATCC | 0.199
136 | AAAGGATC | -0.172
137 | CCTGGGAA | -0.0887
138 | CCGATTCG | 0.25
139 | ACGGTCAA | 0.166
140 | AACGATAA | -0.0277
141 | CATTACGA | -0.137
142 | ATAACCCG | 0.158
143 | CTGTACGA | -0.215
144 | AGTGTGAG | -0.141
145 | CAAATCCA | -0.0959
146 | CGCCACCG | 0.0914
147 | AAGGACTT | -0.162
148 | AGCCTCAT | -0.049
149 | ATCTCATC | -0.00918
150 | CGAACCCA | -0.00188

Row | Sequence | PBM E-score
151 | AAACTCTC | 0.0902
152 | CATGGTTA | -0.0564
153 | AGAGCGGA | 0.229
154 | AATCACCT | -0.0927
155 | AAGGGTCT | -0.251
156 | CTTGGATA | -0.0622
157 | ACCAGTAG | -0.112
158 | ATTGGCGA | -0.2
159 | GTTTAGGA | -0.241
160 | AAAATACC | 0.0769
161 | AAGACCCC | -0.122
162 | TAATGGAA | 0.0941
163 | CGAATCAC | 0.00478
164 | ACTCACCA | -0.0208
165 | ACGCTGAG | -0.132
166 | CTAAGAGC | -0.156
167 | AACCTCGA | 0.0787
168 | GTGTTCTA | 0.0677
169 | ACGGCGTA | -0.211
170 | ATTTGAGA | -0.166
171 | AAGGAACC | 0.217
172 | AAAAGTAT | 0.0448
